Measurements: PubChem BioAssay AID493208 (National Center for Advancing Translational Sciences (NCATS), 2011)
Hit rate of the full screen: of about 44,000 compounds, about 340 (0.77%) were called active. Another 5% or so got no clear call; they are omitted. The call rests on the fitted dose curve; in most records, active means well fitted inhibition curve with a large enough effect; inconclusive means small, poorly fitted or top-dose-only effect; inactive means flat fitted curve, though single readings scatter. The list shows a part of the results.

Test: Acumen qHTS Assay for Inhibitors of the mTORC1 Signaling Pathway in MEF (Tsc2-/-, p53-/-) Cells: Sytravon;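 further: plate controls were DMSO for no effect and rapamycin for full effect; nearly all actives have a fitted effect of over 50% in size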
Details: phospho-rpS6 immunofluorescence/PI, 24 h; series mostly up to 38.3 µM; activity change, negative = inhibition: at the top concentration
Procedure, shortened: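 Cell-based qHTS: Tsc2-/- p53-/- MEF, 24 h cpd, 37 °C; fix/perm, anti-phospho-S6 Alexa-488 + PI; Acumen 488 nm scan; pS6/PI ratio, % positive cells; rapamycin 7.5 nM = inhibition ref; PI count = viability.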

Activity change, negative = inhibition, inactive:
Cc1nn(CC(=O)NCc2ccccc2Cl)c(=O)c2nn(-c3ccccc3)c(C)c12 -1.2%, Cc1ccccc1NC(=O)CSC1=Nc2ccccc2C2=NC(CCC(=O)NCc3ccccc3)C(=O)N12 (stereo not given) 8.54%, Cc1nc(CC(=O)Nc2ccc(N(C)C)cc2)cs1 -1.08%, Cc1cc(C)cc(N2C(=O)N(CC(=O)c3ccc(Br)cc3)c3ccccc3S2(=O)=O)c1 4.84%, O=S(=O)(NCc1cccc(Br)c1)c1ccc(-c2cc(C(F)(F)F)on2)s1 0%, COc1ccccc1CNC(=O)CN1C(=O)COc2ccc(S(=O)(=O)N3CCCCC3)cc21 0.835%, CCN(CC)C(=O)c1sc2c(c1C)c(=O)n(-c1ccc(Cl)c(Cl)c1)c(=O)n2Cc1cc(=O)n2c(C)cccc2n1 -2.92%, COC(=O)CN1C(=O)CSc2ccc(S(=O)(=O)N3CCOCC3)cc21 1.68%, COC(=O)c1sccc1S(=O)(=O)N(CC(=O)NCc1ccc(C)cc1)c1ccc(Cl)cc1 3.16%, COc1ccc(C(=O)Nc2ccc3nc(SCC(=O)N4CCCc5ccccc54)sc3c2)cc1 0%, CCCCn1cc(S(=O)(=O)c2ccc(OC)cc2)c(=O)c2cc(F)c(N3CCCC3)cc21 5.62%, Cc1ccc(-c2nc(C)c(CCNS(=O)(=O)c3ccccc3F)s2)cc1 -1.8%, Cc1cccc(NC(=O)N2CCC(CN3CCc4ccccc4C3)CC2)c1C -13.6%, CCOc1ccc(NC(=O)Cn2cc(C(=O)c3ccc(C)c(C)c3)c(=O)c3cc4c(cc32)OCCO4)cc1 -15.9%, CCOC(=O)c1cccc(NC(=O)CN2C(=O)CC(C)(C)Sc3ccccc32)c1 -2.58%, CCN(C(=O)c1oc2ccc(S(=O)(=O)N3CCCCCC3)cc2c1C)c1ccccc1 -14.9%, O=C1C(=O)N(C2CCN(S(=O)(=O)c3ccc(F)cc3)CC2)CCN1Cc1ccccc1 0%, Cc1cccc(C)c1OCc1nc2c3cnn(-c4cccc(F)c4)c3ncn2n1 -1.1%, Cc1ccc(-n2ncc(C(=O)NCCN3CCc4ccccc4C3)c2C2CCN(C(=O)OC(C)(C)C)CC2)cc1 0%, COc1ccc(CCNC(=O)CCCn2c(=O)c3ccccc3n(Cc3ccccc3C)c2=O)cc1OC -15.6%, CCOC(=O)c1cc(S(=O)(=O)N2CCN(c3ccc(OC)cc3)CC2)[nH]n1 1.85%, Cc1ccc(Nc2c(-c3ccc(N4CCOCC4)cc3)nc3ncccn23)cc1 15.9%, Cc1ccc(CNC(=O)c2c3c(nc4ccccc24)C(=O)N(C2CCCCC2)C3)cc1 4.06%, COc1ccc(Cl)cc1NC(=O)CSc1nccn1Cc1ccco1 3.19%, COc1cccc(NC(=O)CSc2nc3ccccc3nc2N2CCOCC2)c1 -6.71%
